The other results are listed elsewhere or left out. Sequences were assembled here from the parent chain. Values near 0.05 are background.
B1: TEV protease; numbered along this chain (parent)
chain: MGESLFKGPRDYNPISSSICHLTNESDGHTTSLYGIGFGPFIITNKHLFRRNNGTLVVQSLHGVFKVKDTTTLQQHLVDGRDMIIIRMPKDFPPFPQKLKFREPQREERICLVTTNFQTKSMSSMVSDTSCTFPSGDGIFWKHWIQTKDGQCGSPLVSTRDGFIVGIHSASNFTNTNNYFTSVPKNFMELLTNQEAQQWVSGWRLNADSVLWGGHKVFMVKPEEPFQPVKEATQL

Variants of: B1
Assay: raw area under fraction-flipped curve 0-4 h after induction (AUC4h, not background-subtracted), DNA-recorder readout of cleavage of the substrate (dimensionless); higher = more cleavage of the substrate by the protease variant
Settings: temperature: 34 °C; time window: 0-4 h after rhamnose induction
Method: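 In vivo DNA recorder in E. coli TOP10(DE3) ΔrhaA at 34 °C. Each TEVp single-site mutant (parent TEVp 0) is paired with a single-site variant of the 7-mer TEVs (canonical ENLYFQ|S). The substrate sits between flexible linkers in a Bxb1-sfGFP-TEVs-SsrA fusion, so cleavage stabilises Bxb1 and speeds flipping of a recombination array, read by NGS. The value is the raw area under the fraction-flipped curve over 0-4 h after rhamnose induction (AUC4h), with ≥20 reads per time point. It is not background-subtracted; inactive controls average about 0.047.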
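Also: Bxb1 expression induced with 0.2% (w/v) L-rhamnose at OD600 near 0.5, cultures sampled hourly, flipped fraction per protease–substrate barcode pair counted by paired-end Illumina sequencing.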

Variant	area with substrate ENLYFQA	area with substrate ENLYFQC	area with substrate ENLYFQD	area with substrate ENLYFQF	area with substrate ENLYFQG	area with substrate ENLYFQH	area with substrate ENLYFQN	area with substrate ENLYFQR	area with substrate ENLYFQS	area with substrate ENLYFQT	area with substrate ENLYFQW	area with substrate ENLYFQY	area with substrate ENLYFQK	area with substrate ENLYFQL	area with substrate ENLYFQM	area with substrate ENLYFQQ	area with substrate ENLYFQI	area with substrate ENLYFQV	area with substrate ENLYFQE	area with substrate ENLYFQP
MGESLFKGPRDYNPISSSICHLTNESDGHTTSLYGIGFGPFIITNKHLFRRNNGTLVVQSLHGVFKVKDTTTLQQHLVDGRDMIIIRMPKDFPPFPQKLKFREPQREERICLVTTNFQYKSMSSMVSDTSCTFPSGDGIFWKHWIQTKDGQCGSPLVSTRDGFIVGIHSASNFTNTNNYFTSVPKNFMELLTNQEAQQWVSGWRLNADSVLWGGHKVFMVKPEEPFQPVKEATQL [T119Y]	0.127	0.105	0.0705	0.0715	0.0627	0.0752	0.0806	0.038	0.0934	0.0626	0.0614	0.0695	–	–	–	–	–	–	–	–
MGESLFKGPRDYNPISSSICHLTNESDGHTTSLYGIGFGPFIITNKHLFRRNNGTLVVQSLHGVFKVKDTTTLQQHLVDGRDMIIIRMPKDFPPFPQKLKFREPQREERICLVTTNFQTKSMSSMVSDTSCTFPSGDGIFWKHWIQTKDIQCGSPLVSTRDGFIVGIHSASNFTNTNNYFTSVPKNFMELLTNQEAQQWVSGWRLNADSVLWGGHKVFMVKPEEPFQPVKEATQL [G150I]	0.0449	0.0615	–	0.0441	–	0.0669	0.0577	0.0551	0.0575	0.0479	–	–	0.056	0.0543	0.0563	0.0571	–	–	–	–
MGESLFKGPRDYNPISSSICHLTNESDGHTTSLYGIGFGPFIITNKHLFRRNNGTLVVQSLHGVFKVKDTTTLQQHLVDGRDMIIIRMPKDFPRFPQKLKFREPQREERICLVTTNFQTKSMSSMVSDTSCTFPSGDGIFWKHWIQTKDGQCGSPLVSTRDGFIVGIHSASNFTNTNNYFTSVPKNFMELLTNQEAQQWVSGWRLNADSVLWGGHKVFMVKPEEPFQPVKEATQL [P94R]	0.0804	0.12	–	0.069	0.0992	–	–	–	0.102	0.0622	0.0747	–	0.0665	0.0665	0.128	–	0.0368	–	–	–
MGESLFKGPRDYNPISSSICHLTNESDGHTTSLYGIGFGPFIITNKHLFRPNNGTLVVQSLHGVFKVKDTTTLQQHLVDGRDMIIIRMPKDFPPFPQKLKFREPQREERICLVTTNFQTKSMSSMVSDTSCTFPSGDGIFWKHWIQTKDGQCGSPLVSTRDGFIVGIHSASNFTNTNNYFTSVPKNFMELLTNQEAQQWVSGWRLNADSVLWGGHKVFMVKPEEPFQPVKEATQL [R51P]	0.059	0.0686	0.0701	0.0446	0.0713	0.0644	0.0712	–	0.0686	0.112	–	0.0517	0.059	0.0769	–	0.043	0.0447	0.0554	–	–
MGESLFKGPRDYNPISSSICHLTNESDGHTTSLYGIGFGPFIITNKHLFRRNNGTLVVQSLHGVFKVKDTTTLQQHLVDGRDMIIIRMPKDFPPFPQKLKFREPQREERICLVTTNFQTKSMSSMVSDTSCTFPSGDGIFWKHWIQTKDGQCGSPLVSTRDGFIVGIHSASNFTNTNNYFTSVPKNFMELLTNQEAQQWVSDWRLNADSVLWGGHKVFMVKPEEPFQPVKEATQL [G202D]	0.0875	–	–	–	0.0846	–	0.0701	–	0.0688	–	0.0602	0.055	0.0531	0.053	–	–	–	–	–	–
MGESCFKGPRDYNPISSSICHLTNESDGHTTSLYGIGFGPFIITNKHLFRRNNGTLVVQSLHGVFKVKDTTTLQQHLVDGRDMIIIRMPKDFPPFPQKLKFREPQREERICLVTTNFQTKSMSSMVSDTSCTFPSGDGIFWKHWIQTKDGQCGSPLVSTRDGFIVGIHSASNFTNTNNYFTSVPKNFMELLTNQEAQQWVSGWRLNADSVLWGGHKVFMVKPEEPFQPVKEATQL [L5C]	0.123	–	0.0733	–	–	–	0.0918	0.0681	0.102	0.0697	0.0645	0.0798	–	–	0.0756	–	–	–	–	–
MGESLFKGPRDYNPISSSICHLTNESDGHTTSLAGIGFGPFIITNKHLFRRNNGTLVVQSLHGVFKVKDTTTLQQHLVDGRDMIIIRMPKDFPPFPQKLKFREPQREERICLVTTNFQTKSMSSMVSDTSCTFPSGDGIFWKHWIQTKDGQCGSPLVSTRDGFIVGIHSASNFTNTNNYFTSVPKNFMELLTNQEAQQWVSGWRLNADSVLWGGHKVFMVKPEEPFQPVKEATQL [Y34A]	0.0808	0.0832	0.0457	–	0.0827	–	–	–	0.0897	–	0.0664	–	0.0589	–	0.07	–	–	0.0538	–	–
MGESLFKGPRDYNPISSSICHLTNMSDGHTTSLYGIGFGPFIITNKHLFRRNNGTLVVQSLHGVFKVKDTTTLQQHLVDGRDMIIIRMPKDFPPFPQKLKFREPQREERICLVTTNFQTKSMSSMVSDTSCTFPSGDGIFWKHWIQTKDGQCGSPLVSTRDGFIVGIHSASNFTNTNNYFTSVPKNFMELLTNQEAQQWVSGWRLNADSVLWGGHKVFMVKPEEPFQPVKEATQL [E25M]	0.121	0.119	0.0943	0.0848	0.113	0.0945	0.0864	0.055	0.105	0.0621	0.0681	0.0824	0.0599	0.0573	0.117	0.0591	–	0.0567	0.056	0.0755
MGESLFKGPRDYNPISSSICHLTNESDGHTTSLYGIGFGPFIITNKHLFRRNNGTLVVQSLHGVFKVKDTTTLQQHLVDGYDMIIIRMPKDFPPFPQKLKFREPQREERICLVTTNFQTKSMSSMVSDTSCTFPSGDGIFWKHWIQTKDGQCGSPLVSTRDGFIVGIHSASNFTNTNNYFTSVPKNFMELLTNQEAQQWVSGWRLNADSVLWGGHKVFMVKPEEPFQPVKEATQL [R81Y]	0.0826	0.0915	0.0582	–	0.0859	0.0766	0.071	0.0732	0.0806	0.056	0.0616	0.0622	0.057	0.0618	0.0866	–	0.0639	0.0599	–	–
